Several values for one entry are separate records, joined by “and”; a condition that tells them apart may be missing. Equal values may be shown once. Whole data set: some 5,300 compounds, median “PER2::LUC luminescence relative to vehicle control” near 0.96, cut for the highest 2% near 1.3. The list shows a part of the results.
System: mPer2Luc MEF
Assay: PER2::LUC luminescence relative to vehicle control (fold of vehicle); higher = higher PER2::LUC reporter signal
Conditions: 10 µM
How it was run: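 In 384-well plates, ~3000 mPer2Luc reporter mouse embryonic fibroblasts per well were cultured in DMEM with 10% FBS at 37 °C and 5% CO2 for 48 h before compounds from commercial libraries were added at 10 μM. ONE-Glo luciferase readings were taken 24 h and 30 h after treatment. Each value is PER2::LUC luminescence given as fold of vehicle control.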

COC(N)=O
PER2::LUC luminescence (time after treatment 24 h): 1.07 | PER2::LUC luminescence (time after treatment 30 h): 1.01

C[C@H]1CC[C@@H]2[C@@H](C)[C@H]3[C@H](C[C@H]4[C@@H]5CC=C6C[C@@H](O[C@@H]7O[C@H](CO)[C@H](O)[C@H](O[C@@H]8O[C@H](CO)[C@@H](O)[C@H](O)[C@H]8O)[C@H]7O[C@H]7O[C@@H](C)[C@H](O)[C@@H](O)[C@H]7O)CC[C@]6(C)[C@H]5CC[C@]34C)N2C1 [Alpha-SOLANINE]
PER2::LUC luminescence (time after treatment 24 h): 1.03 | PER2::LUC luminescence (time after treatment 30 h): 1.09

COc1cc2c(cc1O)C[C@H]1c3c(cc(O)c(OC)c3-2)CCN1C
PER2::LUC luminescence (time after treatment 24 h): 1.05 | PER2::LUC luminescence (time after treatment 30 h): 1.05

CN1CC(CNC(=O)OCc2ccccc2)CC2c3cccc4c3c(cn4C)CC21 (stereo unspecified)
PER2::LUC luminescence (time after treatment 24 h): 0.569 | PER2::LUC luminescence (time after treatment 30 h): 0.482

CCC1(CC)C(=O)NC(=O)NC1=O
PER2::LUC luminescence (time after treatment 24 h): 0.967 | PER2::LUC luminescence (time after treatment 30 h): 0.945

O=C1CCO1
PER2::LUC luminescence (time after treatment 24 h): 0.922 | PER2::LUC luminescence (time after treatment 30 h): 0.962

OC(c1ccccc1)(c1ccccc1)C1CCNCC1
PER2::LUC luminescence (time after treatment 24 h): 0.643 | PER2::LUC luminescence (time after treatment 30 h): 0.77

CC(=O)O[C@@H]1C[C@H]2C(C)(C)C(=O)C=C[C@]2(C)[C@H]2CC[C@]3(C)C(=CC(=O)O[C@H]3c3ccoc3)[C@@]21C
PER2::LUC luminescence (time after treatment 24 h): 0.829 | PER2::LUC luminescence (time after treatment 30 h): 1.08

C[C@]12CCC(=O)C=C1CC[C@@H]1[C@@H]2CC[C@]2(C)C(=O)CC[C@@H]12
PER2::LUC luminescence (time after treatment 24 h): 0.802 | PER2::LUC luminescence (time after treatment 30 h): 0.789

NC(=O)OCCCc1ccccc1
PER2::LUC luminescence (time after treatment 24 h): 0.842 | PER2::LUC luminescence (time after treatment 30 h): 0.985

NC1CCc2cc(O)c(O)cc2C1 (stereo unspecified)
PER2::LUC luminescence (time after treatment 24 h): 1.15 and 1.03 | PER2::LUC luminescence (time after treatment 30 h): 0.977 and 0.993

N[C@@H]1C[C@H]1c1ccccc1.N[C@H]1C[C@@H]1c1ccccc1
PER2::LUC luminescence (time after treatment 24 h): 1.14 | PER2::LUC luminescence (time after treatment 30 h): 0.804

NC(CP(=O)(O)O)C(=O)O (racemic)
PER2::LUC luminescence (time after treatment 24 h): 1.09 and 1.12 | PER2::LUC luminescence (time after treatment 30 h): 0.995 and 1.02

CN1C2CCC1CC(O)C2 (stereo unspecified)
PER2::LUC luminescence (time after treatment 24 h): 1.04 | PER2::LUC luminescence (time after treatment 30 h): 1.08

C#CC(C)(O)CC (stereo unspecified)
PER2::LUC luminescence (time after treatment 24 h): 1.17 and 0.813 | PER2::LUC luminescence (time after treatment 30 h): 0.949 and 0.909

COc1cc(OC)c(OC)cc1C=O
PER2::LUC luminescence (time after treatment 24 h): 1.03 and 1.17 | PER2::LUC luminescence (time after treatment 30 h): 0.958 and 1.22

C[N+]1(C)CCCC(OC(=O)C(O)(c2ccccc2)c2ccccc2)C1 (stereo unspecified)
PER2::LUC luminescence (time after treatment 24 h): 0.879 | PER2::LUC luminescence (time after treatment 30 h): 1.03

O=C(O)[C@@H]1C[C@H]2C[C@@H](CP(=O)(O)O)CC[C@H]2CN1
PER2::LUC luminescence (time after treatment 24 h): 1.03 | PER2::LUC luminescence (time after treatment 30 h): 0.966

OCC1C(O)C(O)C2C(O)CCN12 (stereo unspecified)
PER2::LUC luminescence (time after treatment 24 h): 1.1 | PER2::LUC luminescence (time after treatment 30 h): 1.08

COc1cc(N)c(Cl)cc1C(=O)NC1CN2CCC1CC2 (stereo unspecified)
PER2::LUC luminescence (time after treatment 24 h): 0.93 | PER2::LUC luminescence (time after treatment 30 h): 1.05

C/C(O)=C(\C#N)C(=O)Nc1cc(Br)ccc1Br
PER2::LUC luminescence (time after treatment 24 h): 1.15 | PER2::LUC luminescence (time after treatment 30 h): 0.986

COc1cc([C@@H]2c3cc4c(cc3[C@@H](O)[C@H]3COC(=O)[C@H]23)OCO4)cc(OC)c1O
PER2::LUC luminescence (time after treatment 24 h): 0.517 | PER2::LUC luminescence (time after treatment 30 h): 0.433

Cc1ccccc1-n1c(Cn2ncc3c(N)ncnc32)nc2cccc(C)c2c1=O
PER2::LUC luminescence (time after treatment 24 h): 0.974 | PER2::LUC luminescence (time after treatment 30 h): 0.988

NC(=O)[C@H](Cc1ccccc1)NC(=O)[C@H](Cc1c[nH]c2ccccc12)NC(=O)[C@@H]1CCCN1C(=O)[C@@H](N)Cc1ccc(O)cc1
PER2::LUC luminescence (time after treatment 24 h): 1.02 | PER2::LUC luminescence (time after treatment 30 h): 0.941

CCCC(C)(COC(N)=O)COC(=O)NC(C)C (stereo unspecified)
PER2::LUC luminescence (time after treatment 24 h): 0.917 | PER2::LUC luminescence (time after treatment 30 h): 1

CCC1(C)CC(=O)NC(=O)C1
PER2::LUC luminescence (time after treatment 24 h): 0.922 | PER2::LUC luminescence (time after treatment 30 h): 0.824

COC(C)(C)CCC[C@H](C)C/C=C/C(C)=C/C(=O)OC(C)C
PER2::LUC luminescence (time after treatment 24 h): 0.969 | PER2::LUC luminescence (time after treatment 30 h): 0.994

Cl[C@H]1[C@H](Cl)[C@@H](Cl)[C@@H](Cl)[C@H](Cl)[C@H]1Cl
PER2::LUC luminescence (time after treatment 24 h): 1.06 | PER2::LUC luminescence (time after treatment 30 h): 0.843

CC1(C)C(C=C(Cl)c2ccc(Cl)cc2)C1C(=O)OC(C#N)c1ccc(F)c(Oc2ccccc2)c1 (stereo unspecified)
PER2::LUC luminescence (time after treatment 24 h): 0.944 | PER2::LUC luminescence (time after treatment 30 h): 0.997

Oc1ccc(Cl)cc1Cc1cc(Cl)ccc1O
PER2::LUC luminescence (time after treatment 24 h): 0.995 | PER2::LUC luminescence (time after treatment 30 h): 0.95

NC(=O)CN1CC(c2ccccc2)CC1=O (stereo unspecified)
PER2::LUC luminescence (time after treatment 24 h): 1 | PER2::LUC luminescence (time after treatment 30 h): 0.907

CC(O)CN1CCN(CC(=O)[O-])CCN(CC(=O)[O-])CCN(CC(=O)[O-])CC1.[Gd+3] (stereo unspecified)
PER2::LUC luminescence (time after treatment 24 h): 1.04 | PER2::LUC luminescence (time after treatment 30 h): 0.84

CC(C)NC1CCn2c(=O)[nH]c3cccc(c32)C1O (stereo unspecified)
PER2::LUC luminescence (time after treatment 24 h): 1.03 | PER2::LUC luminescence (time after treatment 30 h): 0.954

C[N@+]1(CC2CC2)CC[C@]23c4c5ccc(O)c4O[C@H]2C(=O)CC[C@@]3(O)[C@H]1C5
PER2::LUC luminescence (time after treatment 24 h): 0.996 | PER2::LUC luminescence (time after treatment 30 h): 1.02

Cc1ncsc1CCCl
PER2::LUC luminescence (time after treatment 24 h): 1.02 | PER2::LUC luminescence (time after treatment 30 h): 0.91

CCC1(c2ccc(N)cc2)CCC(=O)NC1=O (racemic)
PER2::LUC luminescence (time after treatment 24 h): 0.88 | PER2::LUC luminescence (time after treatment 30 h): 1.04

CNC1CC(c2ccc(Cl)c(Cl)c2)c2ccccc21 (stereo unspecified)
PER2::LUC luminescence (time after treatment 24 h): 0.674 | PER2::LUC luminescence (time after treatment 30 h): 0.682

CCCCCCC(C)(C)c1ccc([C@@H]2C[C@H](O)CC[C@H]2CCCO)c(O)c1
PER2::LUC luminescence (time after treatment 24 h): 0.824 | PER2::LUC luminescence (time after treatment 30 h): 0.966

CCCn1c(=O)c2[nH]c(C3CCCC3)nc2n(CCCOC(=O)c2ccc(S(=O)(=O)F)cc2)c1=O
PER2::LUC luminescence (time after treatment 24 h): 0.904 | PER2::LUC luminescence (time after treatment 30 h): 1.01

CCN1CCN(C(=O)Cc2ccc(Nc3ncc(F)c(Nc4ccc(C(=O)Nc5ccccc5Cl)cc4)n3)cc2)CC1
PER2::LUC luminescence (time after treatment 24 h): 0.472 | PER2::LUC luminescence (time after treatment 30 h): 0.586

CC(O)(CS(=O)(=O)c1ccc(F)cc1)C(=O)Nc1ccc(C#N)c(C(F)(F)F)c1 (stereo unspecified)
PER2::LUC luminescence (time after treatment 24 h): 0.939 | PER2::LUC luminescence (time after treatment 30 h): 0.85

CN1CCc2cc3c(cc2C1C1OC(=O)c2c1ccc1c2OCO1)OCO3 (single isomer, unassigned; (+))
PER2::LUC luminescence (time after treatment 24 h): 1.06 | PER2::LUC luminescence (time after treatment 30 h): 1.05

CCOC(=O)c1cncn1[C@H](C)c1ccccc1
PER2::LUC luminescence (time after treatment 24 h): 1.05 | PER2::LUC luminescence (time after treatment 30 h): 1.04

CNC(=O)Oc1cccc2ccccc12
PER2::LUC luminescence (time after treatment 24 h): 1.06 | PER2::LUC luminescence (time after treatment 30 h): 0.905

CC([C@H](O)c1ccccc1)N(C)C (single isomer, unassigned; (-))
PER2::LUC luminescence (time after treatment 24 h): 0.958 | PER2::LUC luminescence (time after treatment 30 h): 0.965

C=CCc1ccc(OC)cc1
PER2::LUC luminescence (time after treatment 24 h): 0.993 | PER2::LUC luminescence (time after treatment 30 h): 0.968

NCC1(CC(=O)O)CCCCC1
PER2::LUC luminescence (time after treatment 24 h): 1.04 and 0.952 | PER2::LUC luminescence (time after treatment 30 h): 0.954 and 1

COc1cc2ccc(=O)oc2c2ccoc12
PER2::LUC luminescence (time after treatment 24 h): 0.633 | PER2::LUC luminescence (time after treatment 30 h): 0.662

O=c1cccc2n1C[C@@H]1CNC[C@H]2C1
PER2::LUC luminescence (time after treatment 24 h): 1.03 and 1.01 | PER2::LUC luminescence (time after treatment 30 h): 1.01 and 0.906

CC(N)C(O)c1ccccc1 (stereo unspecified)
PER2::LUC luminescence (time after treatment 24 h): 0.924 | PER2::LUC luminescence (time after treatment 30 h): 0.931

CC1(C)C(=O)[C@@H]2O[C@@H]2[C@@]2(C)C1C[C@@H](O)[C@]1(C)C2CC[C@@]2(C)[C@H](c3ccoc3)OC(=O)C3OC321 (stereo partly specified)
PER2::LUC luminescence (time after treatment 24 h): 0.95 | PER2::LUC luminescence (time after treatment 30 h): 1.03

CC(C)C[C@H]1C(=O)N2CCC[C@H]2[C@]2(O)O[C@](NC(=O)[C@@H]3C=C4c5cccc6[nH]cc(c56)C[C@H]4N(C)C3)(C(C)C)C(=O)N12
PER2::LUC luminescence (time after treatment 24 h): 0.802 | PER2::LUC luminescence (time after treatment 30 h): 0.71

O=C(CCCN1CCC2(CC1)C(=O)NCN2c1ccccc1)c1ccc(F)cc1
PER2::LUC luminescence (time after treatment 24 h): 1 and 1.01 | PER2::LUC luminescence (time after treatment 30 h): 0.89 and 0.822

CCCN(CCC)C1CCc2ccc(O)cc2C1 (racemic)
PER2::LUC luminescence (time after treatment 24 h): 0.928 | PER2::LUC luminescence (time after treatment 30 h): 0.892

CN(C(=O)Cc1ccc(Cl)c(Cl)c1)[C@H](CN1CCCC1)c1cccc(N=C=S)c1
PER2::LUC luminescence (time after treatment 24 h): 0.676 | PER2::LUC luminescence (time after treatment 30 h): 0.687

O=C(O)CF
PER2::LUC luminescence (time after treatment 24 h): 1.08 | PER2::LUC luminescence (time after treatment 30 h): 1.08

CC(C)Oc1cccnc1N(C)C1CCN(Cc2ccccc2)CC1
PER2::LUC luminescence (time after treatment 24 h): 1.02 | PER2::LUC luminescence (time after treatment 30 h): 0.839

CCN1C[C@]2(COC)CC[C@H](OC)[C@]34C5C[C@@H]6[C@@H](OC)C[C@@]7(OCO[C@@]7(C13)[C@@H](O)C24)C5[C@H]6OC (stereo partly specified)
PER2::LUC luminescence (time after treatment 24 h): 0.86 | PER2::LUC luminescence (time after treatment 30 h): 0.989
